# Laboratory results: the supplement of paper PMC4604168 (melanoma cell lines)
# The other results are listed elsewhere or left out. Most values come without repeats; read them as rough.
# How the values were obtained:
# Experiment in all cases: cell count relative to DMSO control; melanoma cells; higher = more viable cells
# Conditions in all cases: library dose: low library concentration; 72 h
# WM115 = test system: WM115
# WM1716 = test system: WM1716
# WM1745 = test system: WM1745
# WM3526 = test system: WM3526
# WM3619 = test system: WM3619
# WM451Lu = test system: WM451Lu
# 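Also: cell number obtained by counting DAPI-stained nuclei in high-throughput microscope images with image analysis software, screen run in 1,536-well plates.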
Structure (SMILES),cell count (WM115),cell count (WM1716),cell count (WM1745),cell count (WM3526),cell count (WM3619),cell count (WM451Lu)
"CCc1ccc(CCOc2ccc(CC3SC(=O)NC3=O)cc2)nc1 (centres undefined) [pioglitazone] + COc1cc2ncnc(Nc3ccc(Oc4ccccc4)cc3)c2cc1OC [SrcI1] (first compound 2 µM, partner dose 2 µM)",101%,120%,87.3%,106%,102%,130%
"CN(NC(=O)CC(=O)NN(C)C(=S)c1ccccc1)C(=S)c1ccccc1 + COC(=O)c1sccc1S(=O)(=O)Nc1ccc(Nc2ccccc2)cc1OC [GSK0660] (first compound 0.006 µM, partner dose 1 µM)",81.6%,81.4%,44.4%,103%,36.4%,108%
"COc1cc2c(Oc3ccc4[nH]c(C)cc4c3F)ncnc2cc1OCCCN1CCCC1 [cediranib] + c1cc(-c2cnn3cc(-c4ccc(OCCN5CCCCC5)cc4)cnc23)ccn1 [Dorsomorphin] (first compound 0.4 µM, partner dose 0.4 µM)",85.8%,104%,74.4%,89.4%,148%,83.1%
"CCCCCCCCc1ccc(CCC(N)(CO)CO)cc1 [fingolimod] + COc1ccc2c(c1)CCC1C2CCC2(C)C(NCCCCCCN3C(=O)C=CC3=O)CCC12 [U73122] (first compound 2 µM, partner dose 0.4 µM)",94.4%,76.6%,82.8%,86.8%,110%,81.2%
"CN(NC(=O)CC(=O)NN(C)C(=S)c1ccccc1)C(=S)c1ccccc1 + COc1ccc2c(c1)CCC1C2CCC2(C)C(NCCCCCCN3C(=O)C=CC3=O)CCC12 [U73122] (first compound 0.006 µM, partner dose 0.4 µM)",99.8%,82%,111%,100%,116%,114%
"CCCCCCCCc1ccc(CCC(N)(CO)CO)cc1 [fingolimod] + O=C(O)c1ccc(-c2c[nH]c3ncc(-c4ccccc4)cc23)cc1C1CCCC1 [GSK650394] (first compound 2 µM, partner dose 0.16 µM)",90.6%,97.5%,81%,83%,95.9%,124%
"CC(C)(C)c1cnc(CSc2cnc(NC(=O)C3CCNCC3)s2)o1 + Cc1cc(N2CCOCC2)cc2[nH]c(-c3c(NC[C@@H](O)c4cccc(Cl)c4)cc[nH]c3=O)nc12 [BMS536924] (first compound 0.01 µM, partner dose 0.2 µM)",108%,97.3%,72.6%,111%,108%,88.9%
"CC(C)(C)c1cnc(CSc2cnc(NC(=O)C3CCNCC3)s2)o1 + COC(=O)c1sccc1S(=O)(=O)Nc1ccc(Nc2ccccc2)cc1OC [GSK0660] (first compound 0.01 µM, partner dose 1 µM)",109%,100%,96.7%,98.5%,101%,118%
"NC(=O)c1ccc(N(C(N)=O)c2c(F)cccc2F)nc1-c1ccc(F)cc1F + Cc1cc(N2CCOCC2)cc2[nH]c(-c3c(NC[C@@H](O)c4cccc(Cl)c4)cc[nH]c3=O)nc12 [BMS536924] (first compound 0.4 µM, partner dose 0.2 µM)",120%,109%,68.9%,105%,59.4%,97.3%
"COc1cc2c(Oc3ccc4[nH]c(C)cc4c3F)ncnc2cc1OCCCN1CCCC1 [cediranib] + COc1cc(N2CCC(N3CCN(C)CC3)CC2)ccc1Nc1ncc(Cl)c(Nc2ccccc2S(=O)(=O)C(C)C)n1 [NVP-TAE684] (first compound 0.4 µM, partner dose 0.08 µM)",99.7%,99.8%,71%,89.4%,91.8%,103%
"NC(=O)c1ccc(N(C(N)=O)c2c(F)cccc2F)nc1-c1ccc(F)cc1F + c1cc(-c2cnn3cc(-c4ccc(OCCN5CCCCC5)cc4)cnc23)ccn1 [Dorsomorphin] (first compound 0.4 µM, partner dose 0.4 µM)",117%,103%,86.9%,97.1%,92.9%,109%
"NC(=O)c1ccc(N(C(N)=O)c2c(F)cccc2F)nc1-c1ccc(F)cc1F + O=S(=O)(c1ccccc1)N(CC(F)(F)F)c1ccc(C(O)(C(F)(F)F)C(F)(F)F)cc1 [T0901317] (first compound 0.4 µM, partner dose 1.4 µM)",89.6%,95.8%,77.8%,80.5%,104%,100%
"COc1cc2c(Oc3ccc4[nH]c(C)cc4c3F)ncnc2cc1OCCCN1CCCC1 [cediranib] + COc1ccc2c(c1)CCC1C2CCC2(C)C(NCCCCCCN3C(=O)C=CC3=O)CCC12 [U73122] (first compound 0.4 µM, partner dose 0.4 µM)",86.6%,82.2%,98.4%,109%,94.4%,107%
"COc1cc2c(Oc3ccc4[nH]c(C)cc4c3F)ncnc2cc1OCCCN1CCCC1 [cediranib] + Oc1cc(-c2nc(-c3ccccc3)[nH]c2-c2ccncc2)ccc1Cl [L779450] (first compound 0.4 µM, partner dose 0.2 µM)",80.2%,113%,71.9%,75.4%,130%,98.9%
